PubChem BioAssay AID1347165 (National Center for Advancing Translational Sciences (NCATS), 2019)
In all, about 220,000 compounds went through this assay and about 5,700 (2.6%) were called active. The inconclusive results got no clear call from the source; some entries with a clear call stand among them for comparison. Calls come from the whole dose curve; as a rule, active = well fitted inhibition curve with a large enough effect; inconclusive = small, poorly fitted or top-dose-only effect; inactive = no such curve, though single readings can be large or run the other way. Where the call is inconclusive, the potency comes from a doubtful curve fit.

These compounds were tested against Lysine-specific demethylase 5B (Homo sapiens) (UniProt Q9UGL1) (assay: Primary screen for KDM5B Histone Demethylases FDH-coupled qHTS). Conditions: FDH-coupled NADH fluorescence (FDH is formaldehyde dehydrogenase); activity change, negative = inhibition: at 57.7 µM (top of the series) unless noted.
Chain of UniProt Q9UGL1 (Q9UGL1 whole entry, looked up): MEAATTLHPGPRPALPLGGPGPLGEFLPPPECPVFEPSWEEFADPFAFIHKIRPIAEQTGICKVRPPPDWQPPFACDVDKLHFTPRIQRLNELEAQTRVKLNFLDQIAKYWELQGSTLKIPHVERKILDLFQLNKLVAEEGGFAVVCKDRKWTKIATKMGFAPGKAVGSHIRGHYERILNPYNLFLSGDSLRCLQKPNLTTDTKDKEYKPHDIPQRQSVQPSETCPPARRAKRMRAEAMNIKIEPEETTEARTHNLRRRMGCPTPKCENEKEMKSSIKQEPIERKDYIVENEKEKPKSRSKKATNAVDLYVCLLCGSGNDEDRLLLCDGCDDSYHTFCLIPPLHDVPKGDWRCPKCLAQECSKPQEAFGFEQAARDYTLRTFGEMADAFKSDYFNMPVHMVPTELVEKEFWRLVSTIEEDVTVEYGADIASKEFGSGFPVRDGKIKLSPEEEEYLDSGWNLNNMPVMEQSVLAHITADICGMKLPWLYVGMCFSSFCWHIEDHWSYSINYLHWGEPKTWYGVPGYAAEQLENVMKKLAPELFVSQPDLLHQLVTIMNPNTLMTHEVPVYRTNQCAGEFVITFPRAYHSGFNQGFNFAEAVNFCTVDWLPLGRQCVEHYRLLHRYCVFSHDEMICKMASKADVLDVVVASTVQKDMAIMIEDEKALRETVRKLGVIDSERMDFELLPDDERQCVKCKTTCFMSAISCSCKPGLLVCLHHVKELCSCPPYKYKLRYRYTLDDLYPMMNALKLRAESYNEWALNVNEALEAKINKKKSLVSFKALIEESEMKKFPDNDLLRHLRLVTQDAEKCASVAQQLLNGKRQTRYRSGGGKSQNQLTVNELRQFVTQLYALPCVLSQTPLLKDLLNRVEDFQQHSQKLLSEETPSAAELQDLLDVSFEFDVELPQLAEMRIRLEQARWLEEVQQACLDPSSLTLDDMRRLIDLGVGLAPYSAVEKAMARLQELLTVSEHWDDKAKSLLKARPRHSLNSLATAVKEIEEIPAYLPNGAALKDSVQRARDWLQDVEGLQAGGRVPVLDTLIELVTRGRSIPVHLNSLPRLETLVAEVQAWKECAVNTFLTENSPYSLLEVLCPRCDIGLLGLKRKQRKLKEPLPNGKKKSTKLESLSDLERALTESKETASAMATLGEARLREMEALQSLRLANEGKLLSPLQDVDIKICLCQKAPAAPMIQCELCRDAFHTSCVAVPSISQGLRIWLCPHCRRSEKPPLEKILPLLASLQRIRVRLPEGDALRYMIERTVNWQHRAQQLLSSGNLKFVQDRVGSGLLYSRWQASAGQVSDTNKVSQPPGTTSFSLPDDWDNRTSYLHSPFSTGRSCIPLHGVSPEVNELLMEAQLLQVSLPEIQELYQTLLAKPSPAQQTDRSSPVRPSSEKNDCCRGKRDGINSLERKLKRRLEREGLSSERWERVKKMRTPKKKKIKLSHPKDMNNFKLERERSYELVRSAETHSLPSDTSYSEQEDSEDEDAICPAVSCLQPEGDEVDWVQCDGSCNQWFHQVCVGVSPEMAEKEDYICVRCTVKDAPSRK
How it was run: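 Compound dilutions met 200 nM (final) KDM5BΔAP for 10 min at room temperature before substrate addition. The substrate mix held 12.5 µM H3K4me3 with cofactors 25 µM α-ketoglutarate and 50 µM Fe²⁺. NADH signal gain over 30 min defined activity.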
Note: nearly all actives have a fitted effect of over 70% in size.
Potency is the fitted concentration of half-maximal effect; tags give direction and shape of the fitted curve.
Throughout, for activity change, negative = inhibition: 0% is about no effect.

Row | Structure (SMILES) | Potency | activity change, negative = inhibition
1 | COc1ccc(CCNC(=O)CNCC(c2ccccc2)N(C)C)cc1OC (centres undefined) | inconclusive: 22.4 µM [inhibitor, partial curve, poor fit] | –
2 | COc1ccc(-c2cc(Nc3ccccc3Cl)nc(C)n2)cc1 | inconclusive: 39.8 µM [inhibitor, single point] | –
3 | N#Cc1ccccc1O | – | inactive: -15.9%
4 | CCc1nnc2ccc(N3CCN(C(C)C)CC3)nn12 | inconclusive: 31.6 µM [inhibitor, single point] | –
5 | Cc1ccc2nc(-c3cc(NC(=O)c4ccc5c(c4)OCCO5)ccc3Cl)oc2c1 | inconclusive: 35.5 µM [inhibitor, single point] | –
6 | O=c1[nH]c(C2CCCN(CC3CCCC3)C2)nc2ccc(F)cc12 (centres undefined) | – | inactive: 11.3%
7 | COc1ccc2[nH]c3c(c2c1)CCN(C)C31CCN(C(=O)c2ccoc2)CC1 | inconclusive: 22.4 µM [inhibitor, single point] | –
8 | CCN(CC)c1cc(CCC(=O)NCCN2CCCCCC2)ccn1 | active: 28.2 µM | –
9 | Cc1cccc(NC(=O)C2CCN(c3nnc(-n4c(C)ccc4C)s3)CC2)c1C | inconclusive: 25.1 µM [inhibitor, partial curve, poor fit] | –
10 | COc1ccc(-c2nnc(C3CCN(C(=O)c4ccccc4F)CC3)o2)cc1 | inconclusive: 2 µM [inhibitor, partial curve, poor fit] | –
11 | CN1CCN(C(=O)CCn2c(-c3ccccc3)cc3ccccc32)CC1 | inconclusive: 22.4 µM [inhibitor, partial curve, poor fit] | –
12 | CC(=O)Oc1c(-c2ccc(NC(=O)c3ccco3)cc2)c(C2CC2)nn1-c1cccc(C)c1 | active: 31.6 µM | –
13 | CCN1c2cc(C(N)=O)ccc2C(=O)N2CCCCC21 (centres undefined) | inconclusive: 28.2 µM [inhibitor, partial curve, poor fit] | –
14 | CC(C)c1cc(C=O)c(O)c(C=O)c1 | – | inactive: -10.2%
15 | COc1ccc(-c2ccc3c(c2)C(=O)N2CC[C@H](NC(=O)C4CCCC4)[C@H]2C(=O)N3)c(OC)c1 | active: 31.6 µM | –
16 | O=C(NCc1ccc(Cl)cc1)c1cccc(-c2ccc(S(=O)(=O)N3CCCCC3)cc2)c1 | – | inactive: -8.74%
17 | CC(C)(O)CCc1cccc(C(=O)NC2CCN(c3ncccc3C#N)CC2)c1 | active: 22.4 µM | –
18 | COc1ccc(NC(=O)/C(C#N)=C/c2ccc(OCc3cc(=O)n4nc(C)sc4n3)cc2)cc1 | – | inconclusive: -32.1% [inhibitor]
19 | Cc1cn2c(=O)cc(CN3CC(=O)N(C)c4ccccc4C3=O)nc2s1 | inconclusive: 15.8 µM [inhibitor, partial curve, poor fit] | –
